# Laboratory results taken from PubChem BioAssay AID1347073 (National Center for Advancing Translational Sciences (NCATS), 2019).
# About 200 (0.44%) of roughly 45,000 compounds were called active. Inconclusive results (about 7%) are left out. Calls come from the whole dose curve; as a rule, active = well fitted activation curve with a large enough effect; inconclusive = small, poorly fitted or top-dose-only effect; inactive = no such curve, though single readings can be large or run the other way. Some of the results follow.
# Test: qHTS of TDP-43 Inhibitors: NCGC Sytravon Library Screen; note: 0% is about no effect; nearly all actives have a fitted effect of over 55% in size
# Conditions: yeast TDP-43 toxicity rescue, BacTiter-Glo growth, 24 h; series mostly up to 46.1 µM; growth rescue (activation): at the top concentration
# Method in brief: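 TDP-43-expressing yeast, pregrown in raffinose, seeded at OD600 0.02 in galactose medium with compound for 24 hr at 30 deg C. Growth read by BacTiter-Glo luminescence, so rescue of toxicity appears as activation.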
row,Compound,growth rescue (activation)
1,O=C(CN1CCOCC1)Nc1c2c(nc3ccccc13)N(Cc1ccccc1)CC2,inactive: -14.2%
2,CCOC(=O)C1(C)CCN1C(=O)c1ccc(SC(F)(F)F)cc1 (configuration not stated),inactive: 24.1%
3,Cn1c(CC(=O)Nc2ccccc2Cl)nnc1SCC(=O)NC1=NCCS1,inactive: 12.1%
4,COc1ccc(NC(=S)Nc2ccc(OC)cc2OC)c(OC)c1,inactive: 2.79%
5,CC(C)CCNC(=O)c1cc2c(=O)n3ccccc3nc2s1,inactive: 15.6%
6,COc1ccc(C2C3=C(N=C4SCC(=O)N42)c2ccccc2CC3)cc1 (configuration not stated),inactive: 19.4%
7,OC(COc1ccc(F)cc1)CN1CCN(CC(O)COc2ccc(F)cc2)CC1 (configuration not stated),inactive: 8.29%
8,O=C(NC(c1ccc(Cl)cc1)c1ccsc1)C1CCN(Cc2cccc(Cl)c2)CC1 (configuration not stated),inactive: 9.35%
9,COc1ccc(N2CCN(C(=O)C3(C)CC3(Cl)Cl)CC2)cc1 (configuration not stated),inactive: 23.5%
10,O=c1oc2ccccc2c(N2CCCC2)c1[N+](=O)[O-],inactive: -10.2%
11,CC(C)(C)NC(=O)CN(C(=O)C(=O)Nc1ccc2c(c1)OCCO2)C1CC1,inactive: 5.77%
12,CC(C)CC(=O)NC(=S)Nc1ccc(NC(=O)c2ccco2)cc1,inactive: 14.7%
13,COc1ccc(CN2C(=O)c3cccc4cccc2c34)cc1F,inactive: 23.8%
14,COc1ccc(OC)c(NC(=S)NCc2ccc(S(N)(=O)=O)cc2)c1,inactive: -0.108%
15,Cc1ccc(S(=O)(=O)N2CCOCC2)cc1C(=O)Nc1ccc2c(c1)CCC2,inactive: 7.02%
16,COC(=O)Cc1csc(NC(=O)CSc2nncn2C)n1,inactive: -10.3%
17,CCn1c(COc2ccccc2)nnc1SCC(=O)Nc1ccc(N2CCOCC2)cc1,inactive: -0.0389%
18,COc1ccc(C(=O)N2CCNC(=O)C2CC(=O)Nc2cc(Cl)ccc2OC)cc1 (configuration not stated),inactive: -6.15%
19,Cc1ccc(C2C3=C(CC(C)(C)CC3=O)NC3=C2C(=O)c2ccccc23)cc1 (configuration not stated),inactive: 6.73%
20,CCCC(C)c1nnc(NC(=O)COc2ccc3c(c2)OCO3)s1 (configuration not stated),inactive: -4.73%
21,CC(=O)c1ccc(-c2cnc3c(NC=O)cc(-c4ccc(N5CCN(C)CC5)cc4)cn23)cc1,inactive: 11.6%
22,COc1ccc(C2c3ccc(O)cc3Oc3ncn(CC(C)C)c(=N)c32)cc1 (configuration not stated),inactive: 0.543%
23,Cc1c(C(=O)Nc2ccc(-c3nc4cc(Cl)ccc4o3)cc2)oc2ccccc12,inactive: 1.99%

row,Compound,growth rescue (activation)
1,Cc1oc(-c2cccc(C(F)(F)F)c2)nc1CN1CCC[C@H]1CO,inactive: 2.05%
2,COc1cccc(-c2cnc(C(O)c3ccc(Cl)cc3)[nH]2)c1 (configuration not stated),inactive: 2.84%
3,COc1ccc(NC(=O)Nc2cc(C)ccc2F)cc1OC,inactive: 3.07%
4,O=S(=O)(NC1CCCCC1Nc1ccccc1)c1ccccc1 (configuration not stated),inactive: 12.3%
5,Nc1nonc1-n1nnc(C(=O)N/N=C/c2ccccc2)c1CN1CCc2ccccc21,inactive: -2.66%
6,CCOC(=O)c1ccc[n+](C(C)C(=O)c2ccc(-c3ccccc3)cc2)c1 (configuration not stated),inactive: 20.4%
7,O=C(CCCN1C(=O)/C(=C/c2ccco2)SC1=S)Nc1ccccc1,inactive: 10.8%
8,Cc1c(/C(O)=C2/C(=O)C(=O)N(CCN(C)C)C2c2ccc(C(C)C)cc2)cnn1-c1ccccc1 (configuration not stated),inactive: 14.5%
9,CCC(=O)Oc1ccc(C(=O)Nc2cccc(C(=O)NC(C)(C)C)c2)cc1,inactive: 0.607%
10,CCOc1ccc(-n2c(SCc3ccc([N+](=O)[O-])cc3)nnc2-c2ccccc2)cc1,inactive: 18.8%
11,CCOc1ccc(-c2ncncc2-c2ccccc2OC)c(O)c1,inactive: 17.6%
12,CSc1nc(N(C)C)nc(N(C#N)CCOC(C)=O)n1,inactive: 19.9%
13,Cc1ccc(NC(=O)C(=O)NCc2ccccn2)cc1,inactive: 3.64%
14,COc1cccc(CN(CC(=O)NCc2ccccc2)C(=O)c2csnn2)c1,inactive: 6.02%
15,CCOC(=O)CC(NS(=O)(=O)c1ccc2[nH]c(=O)sc2c1)c1ccc(C)cc1 (configuration not stated),inactive: -13.4%
16,CC(C)C(=O)Nc1ccc2c(c1)nc(CCN1CCN(c3ccccn3)CC1)n2C,inactive: 12.6%
17,CN(Cc1ccon1)Cc1cn(C)nc1-c1ccc(Oc2ccccc2)cc1,inactive: 10.9%
18,CCCCCCn1cnc2c(c1=O)c1nc3ccccc3nc1n2/N=C/c1ccco1,inactive: 5.2%
19,O=C(COc1ccccc1)Nc1ccncc1,inactive: 27%
20,COc1ccc(CNC(=O)COC(=O)/C=C/c2cccc(Br)c2)cc1OC,inactive: 9.21%
21,COc1ccc(Cl)cc1-c1cc(C(=O)NCc2ccc(C(F)(F)F)cc2)[nH]n1,inactive: 10.6%
22,Cc1ccccc1-n1nc(-c2cccnc2)cc1C(=O)N/N=C/c1ccncc1,inactive: 18.7%
23,COc1ccc(NC(=O)COC(=O)CCNS(=O)(=O)c2ccccc2)cc1OC,inactive: 4.94%

row,Compound,growth rescue (activation)
1,CC(NC(=O)/C(C#N)=C/c1cn(-c2ccccc2)nc1-c1ccc(F)cc1)c1ccccc1 (configuration not stated),inactive: -22.3%
2,Cc1ccc(OCC(=O)NCCNC(=O)c2ccncc2)cc1,inactive: -0.457%
3,COc1ccccc1N1CCN(c2ccc([N+](=O)[O-])cn2)CC1,inactive: 14.2%
4,CCc1ccc(OCc2nnc(SCC(=O)NCC3CCCO3)n2C)cc1 (configuration not stated),inactive: 2.24%
5,CC1CCCCC1NC(=O)CCCCCn1c(=S)[nH]c2ccccc2c1=O (configuration not stated),inactive: 9.39%
6,Clc1cccc(N2CCN(c3c4c(nc5nncn35)CCC4)CC2)c1,inactive: 15.7%
7,C=CCn1c(C(c2ccccc2)c2ccccc2)n[nH]c1=S,inactive: 18.6%
8,COc1ccc2nc(N=NC3=C(O)CC(C)(C)CC3=O)sc2c1,inactive: 5.73%
9,COc1ccc(NC(=O)COC(=O)c2ccc(OCc3ccc(Cl)cc3Cl)c(OC)c2)c(OC)c1,inactive: 17.1%
10,CC1(C(=O)NS(=O)(=O)c2ccc(F)cc2F)CCN1C(=O)C/C=C/c1ccccc1 (configuration not stated),inactive: -3.22%
11,CC1CN(CC(O)COC(c2ccc(Cl)cc2)c2ccc(Cl)cc2)CC(C)O1 (configuration not stated),inactive: 19.4%
12,COC(=O)CN(c1cc([N+](=O)[O-])ccc1OC)S(C)(=O)=O,inactive: -3.11%
13,O=C(O)CCCN1C(=O)c2ccc(C(=O)c3cccc([N+](=O)[O-])c3)cc2C1=O,inactive: 0.792%
14,Cc1onc(-c2c(F)cccc2Cl)c1C(=O)OCN1C(=O)c2ccccc2C1=O,inactive: -5.17%
15,CCOc1ccc(CC(=O)NNC(=O)/C=C/C(=O)O)cc1,inactive: -8.41%
16,Cc1cc(NC(=O)COC(=O)CCS(=O)(=O)c2cc(Cl)ccc2Cl)no1,inactive: 2.87%
17,Cn1c(SCc2cccc(F)c2)nnc1-c1ccncc1,inactive: 20.1%
18,CCOC(=O)c1c(CSc2ccc(CC)cc2)oc2ccc(O)c(CN(C)C)c12,inactive: 8.36%
19,O=S(=O)(/N=C(/Nc1cccc2ccccc12)c1ccccc1)c1cccs1,inactive: 28.3%
20,COc1c(Cl)cnn(-c2ccccc2)c1=O,inactive: -4.54%
21,Cc1ccc(S(=O)(=O)N(CC(=O)NCc2ccncc2)Cc2ccc(F)cc2)cc1,inactive: -14.9%
